Test results reported in patent US20230072897A1, “ANTI-B7-H4 ANTIBODY-DRUG CONJUGATE AND MEDICINAL USE THEREOF” (SHANGHAI HANSOH BIOMEDICAL CO., LTD., priority 2019, published 2023).

T1: human huB7-H4-His protein (Homo sapiens, UniProt Q7Z7D3)
T1 construct: made in house; host or cells: 293T cells (pTT5 vector)
T1 sequence (Q7Z7D3 with tags, fused parts or gaps): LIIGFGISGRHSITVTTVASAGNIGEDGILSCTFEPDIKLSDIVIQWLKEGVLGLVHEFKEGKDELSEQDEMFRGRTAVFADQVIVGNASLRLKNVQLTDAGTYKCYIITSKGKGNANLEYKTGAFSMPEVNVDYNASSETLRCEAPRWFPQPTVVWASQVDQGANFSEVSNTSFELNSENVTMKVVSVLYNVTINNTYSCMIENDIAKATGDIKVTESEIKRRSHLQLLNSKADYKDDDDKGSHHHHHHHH

T2: B7-H4 protein on MX-1 cells (Homo sapiens, UniProt Q7Z7D3)
T2 construct: The cultured MX-1 cells expressing human B7-H4 (CLS Cell Lines Service GmbH #300296) were collected; host or cells: MX-1 cells
T2 sequence (Q7Z7D3 25-282): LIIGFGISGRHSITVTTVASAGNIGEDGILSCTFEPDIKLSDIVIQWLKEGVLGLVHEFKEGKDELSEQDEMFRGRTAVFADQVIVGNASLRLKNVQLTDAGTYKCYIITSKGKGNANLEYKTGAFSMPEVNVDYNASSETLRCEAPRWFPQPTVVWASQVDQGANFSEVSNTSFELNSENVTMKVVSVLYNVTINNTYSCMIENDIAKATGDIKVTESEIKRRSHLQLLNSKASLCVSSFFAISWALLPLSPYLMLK


Legend:
[1] = tested on: MX-1 cells expressing human B7-H4; experiment: In vitro cell binding experiment (FACS) with MX-1 cells; settings: flow cytometry
Description: The cultured MX-1 cells expressing human B7-H4 (CLS Cell Lines Service GmbH #300296) were collected, the cell density was adjusted with PBS at pH 7.4, and the cells were plated on a 96-well plate with V-shaped bottom at 1×10^5 cells per well. The plate was centrifuged at 2000 rpm for 5 minutes and the supernatant was removed. 100 μl of the gradient diluted humanized antibody solution (diluted with PBS containing 0.5% BSA, starting from 1 μM, a 3-fold gradient of 10 doses) was added to each well, mixed well and incubated at 4° C. on a shaker for 1 hour. The plate was centrifuged at 2000 rpm for 5 minutes and the supernatant was removed. The cells were washed twice with PBS. 100 μl of FITC-labeled goat anti-human secondary antibody (Abeam, cat #ab97224) diluted with 0.5% BSA in PBS was added to each well, mixed well and incubated for 30 minutes at 4° C. on a shaker. The plate was centrifuged at 2000 rpm for 5 minutes and the supernatant was removed. The cells were washed twice with PBS and then resuspended in PBS. The signal was detected by using a flow cytometer (BECKMAN COULTER, model DxFLEX), and a concentration curve was plotted for result analysis.

[2] = target: T1, human huB7-H4-His protein; experiment: Affinity kinetics experiment (Biacore T200); type: binding; settings: for Affinity to the human B7-H4 antigen protein (in words): Biacore; for Dissociation rate kd: antibody on CM5 chip, 50 nM huB7-H4-His, 1:1 (Langmuir) model
Description: The Biacore method is a generally acknowledged method for objectively detecting the affinity and kinetics between proteins. The affinity and binding kinetics of the antibodies to be tested of the present invention were analyzed by Biacore T200 (GE). The anti-B7-H4 antibodies to be tested of the present invention were covalently linked to CM5 (GE) chips by using the kit provided by Biacore and the NHS standard amino coupling method. Then 50 nM of human huB7-H4-His protein diluted in the same buffer was injected at a flow rate of 10 uL/min. After the injection, the samples were all regenerated with the regeneration reagent in the kit. The antigen-antibody binding kinetics was tracked for 3 minutes and the dissociation kinetics was tracked for 10 minutes. The obtained data were analyzed with a 1:1 (Langmuir) binding model by using BIAevaluation software of GE.

[3] = target: T2, B7-H4 protein on MX-1 cells; experiment: Endocytosis of anti-B7-H4 antibodies in MX-1 cells; type: cell-based; settings: antibody 20 μg/ml; for Humanized antibody-mediated endocytosis efficiency of B7-H4 protein, 0.5 hour (%) / Humanized antibody-mediated endocytosis efficiency of B7-H4 protein, 2 hours (%): 37° C.
Description: In order to test whether the antibodies of the present invention could be endocytosed along with human B7-H4 after binding to B7-H4, MX-1 cells were used for evaluation. MX-1 cells were trypsinized (first washed with PBS once at 37° C. for about 2 min), collected and resuspended in pre-chilled FACS buffer. The cell concentration was adjusted to 1×10^6 cells/mL. 1 mL of the cell suspension was added to an EP tube, centrifuged at 1500 rpm for 5 minutes, and the supernatant was removed. 1 mL of the prepared antibody to be tested was added to resuspend the cells, and the final concentration of the antibody was 20 μg/ml. The cells were incubated on a 4° C. shaker for 1 hour, centrifuged, and the supernatant was discarded (4° C., 1500 rpmx5 min). The cells were washed twice with FACS buffer and the supernatant was removed. 100 μL of fluorescent secondary antibody working solution was added to each tube to resuspend the cells. The cells were incubated on a 4° C. shaker for 30 min, centrifuged, and the supernatant was discarded (4° C., 1500 rpmx5 min). The cells were washed twice with FACS buffer and the supernatant was removed. 1.0 mL of pre-warmed MX-1 cell complete medium was added to each tube to resuspend the cells and mixed. The cell suspension was aliquoted into 4 tubes at 200 μL per tube, which were respectively the 0 min group, blank group, 30 min group and 2 h group. The 0 min and blank groups were placed on ice, while the other groups were placed in a 37° C. incubator for endocytosis for 30 min and 2 h respectively. At the corresponding time point, the EP tube was taken out and placed on ice to pre-chill for 5 min. All treatment groups were centrifuged and the supernatant was discarded (4° C., 1500 rpmx5 min). The cells were washed once with FACS buffer and the supernatant was removed. 250 μL strip buffer was added to EP tubes of all treatment groups except the 0 min group and incubated for 8 min at room temperature. The cells were centrifuged and the supernatant was discraded (4° C., 1500 rpm×5 min). The cells were washed twice with FACS buffer and the supernatant was removed. All treatment groups were added with 100 μL immunostaining fixative, placed at 4° C. for more than 30 min, and detected by the flow cytometer DxFlex. Endocytosis percentage of B7-H4 antibody (%)=(average fluorescence intensity value at each time point−average fluorescence intensity value of the blank group)/(average fluorescence intensity value at zero point−average fluorescence intensity value of the blank group)×100%.

| Affinity to the human B7-H4 antigen protein (in words) [2] | Dissociation rate kd [2] | Humanized antibody-mediated endocytosis efficiency of B7-H4 protein, 0 hour (%) [3] | Humanized antibody-mediated endocytosis efficiency of B7-H4 protein, 0.5 hour (%) [3] | Humanized antibody-mediated endocytosis efficiency of B7-H4 protein, 2 hours (%) [3] | Molecule | Binding to MX-1 cells with high expression of B7-H4 (in words) [1] |
| --- | --- | --- | --- | --- | --- | --- |
| strong affinity | 1e-05 s⁻¹ | 0% | 18.6% | 28.7% | hu2G6: humanized anti-B7-H4 antibody, heavy chain SEQ ID NO: 19, light chain SEQ ID NO: 20 (antibody, A synthetic hu2G6 HC; A synthetic hu2G6 LC) heavy: EVQLLESGGGLVQPGGSLRLSCAASGFTFSRYGMSWVRQAPGKGLEWVSGINGGGSYTYYLDTVKGRFTISRDNARNTLYLQMSSLRAEDTAVYYCVSQGSNYYFDYWGQGTLVTVSS[no letters for human IgG1 constant region] light: DIRMTQSPSSLSASVGDRVTITCHASQGISSNIGWLQQKPGKAPKALIYHGTNLEDGVPSRFSGSGSGADYTLTISSLQPEDFATYYCVQYAQFPYTFGGGTKVEIKRTVAAPSVFIFPPSDEQLKSGTASVVCLLNNFYPREAKVQWKVDNALQSGNSQESVTEQDSKDSTYSLSSTLTLSKADYEKHKVYACEVTHQGLSSPVTKSFNRGEC | bind positively |
| strong affinity | 0.000112 s⁻¹ | – | – | – | hu2F8: humanized anti-B7-H4 antibody, heavy chain SEQ ID NO: 39, light chain SEQ ID NO: 40 (antibody, A synthetic hu2F8 HC; A synthetic hu2F8 LC) heavy: EVQLVQSGAEVKKPGASVKVSCKASGYTFTSSWMNWVRQAPGQRLEWMGGIYPNRGNIEYNEKFKGRVTLTVDTSASTAYMELSSLRSEDTAVYYCARDSRFSYWGQGTLVTVSS[no letters for human IgG1 constant region] light: DIQMTQSPSSLSASVGDRVTITCKASQDVRTAVAWYQQKPGKAPKLLISSTSYRYTGVPSRFSGSGSGTDFTFTISSLQPEDIATYYCQQHYSTPLTFGGGTKVEIKRTVAAPSVFIFPPSDEQLKSGTASVVCLLNNFYPREAKVQWKVDNALQSGNSQESVTEQDSKDSTYSLSSTLTLSKADYEKHKVYACEVTHQGLSSPVTKSFNRGEC | – |
| strong affinity | 0.000249 s⁻¹ | 0% | 13.9% | 25.9% | hu2F7: humanized anti-B7-H4 antibody, heavy chain SEQ ID NO: 21, light chain SEQ ID NO: 22 (antibody, A synthetic hu2F7 HC; A synthetic hu2F7 LC) heavy: EVQLVESGGGLVQPGGSLRLSCAASGFTFSNYYMSWVRQAPGKGLEWVAYVSSGGGSTYYSDSVKGRFTISRDNAKNTLYLQMSSLRAEDTAVYYCTRESYSQGNYFDYWGQGTTVTVSS[no letters for human IgG1 constant region] light: EIVMTQSPATLSLSPGERATLSCRASQSISDYLHWYQQKPGQSPRLLIKFASQSISGIPARFSGSGSGTDFTLTISSLEPEDFAVYYCQNGHSFSLTFGQGTKLEIKRTVAAPSVFIFPPSDEQLKSGTASVVCLLNNFYPREAKVQWKVDNALQSGNSQESVTEQDSKDSTYSLSSTLTLSKADYEKHKVYACEVTHQGLSSPVTKSFNRGEC | bind positively |
